# Article PMC4336329 (PLoS ONE, 2015)
# In all, about 310,000 compounds went through this assay and about 2,200 (0.71%) showed an effect of 50% or more. Effects have a minus sign here. The list shows a part of the results.
# Biological target: human ether-à-go-go-related gene (hERG) potassium channel (human, UniProt Q12809)
# Test: primary screen, population patch clamp on CHO cells stably expressing hERG
# human ether-à-go-go-related gene (hERG) potassium channel, sequence (Q12809 whole entry, looked up): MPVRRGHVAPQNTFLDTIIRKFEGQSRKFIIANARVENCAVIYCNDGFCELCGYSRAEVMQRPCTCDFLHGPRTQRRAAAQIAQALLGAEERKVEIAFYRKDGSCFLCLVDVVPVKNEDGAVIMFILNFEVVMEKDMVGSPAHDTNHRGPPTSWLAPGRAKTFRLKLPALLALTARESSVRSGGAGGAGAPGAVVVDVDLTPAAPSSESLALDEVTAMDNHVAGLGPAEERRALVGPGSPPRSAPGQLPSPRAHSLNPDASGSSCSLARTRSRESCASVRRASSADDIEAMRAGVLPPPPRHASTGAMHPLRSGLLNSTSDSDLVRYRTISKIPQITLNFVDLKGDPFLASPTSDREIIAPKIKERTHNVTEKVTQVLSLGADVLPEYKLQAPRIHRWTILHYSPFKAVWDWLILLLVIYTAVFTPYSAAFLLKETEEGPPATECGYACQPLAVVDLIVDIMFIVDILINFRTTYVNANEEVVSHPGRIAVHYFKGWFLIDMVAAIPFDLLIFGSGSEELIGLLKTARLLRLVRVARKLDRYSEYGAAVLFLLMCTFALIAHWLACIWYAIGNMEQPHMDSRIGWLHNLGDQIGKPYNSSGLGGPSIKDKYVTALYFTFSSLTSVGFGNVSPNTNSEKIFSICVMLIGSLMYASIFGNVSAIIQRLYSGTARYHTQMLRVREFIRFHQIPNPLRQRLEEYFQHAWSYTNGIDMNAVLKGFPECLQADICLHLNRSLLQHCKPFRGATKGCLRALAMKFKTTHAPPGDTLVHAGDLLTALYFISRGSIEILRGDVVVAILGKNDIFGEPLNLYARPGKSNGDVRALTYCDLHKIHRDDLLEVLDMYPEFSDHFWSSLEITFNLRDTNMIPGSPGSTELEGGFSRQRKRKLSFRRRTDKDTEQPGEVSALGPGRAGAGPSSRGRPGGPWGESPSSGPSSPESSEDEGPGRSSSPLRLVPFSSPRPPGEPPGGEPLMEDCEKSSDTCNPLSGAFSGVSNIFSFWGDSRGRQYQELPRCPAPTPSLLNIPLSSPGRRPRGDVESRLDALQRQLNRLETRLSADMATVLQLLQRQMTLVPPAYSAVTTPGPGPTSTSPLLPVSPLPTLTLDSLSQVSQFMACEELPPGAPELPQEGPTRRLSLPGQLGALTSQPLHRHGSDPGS
row,Compound,"hERG current change (%, negative = inhibition) at 1uM"
1,CCNC(=O)NC(=O)C(C)OC(=O)CCCSc1nc2ccccc2s1 (stereo not drawn),-5.32%
2,CC(C)(C)C1CCC(=NNS(=O)(=O)c2ccc(Br)cc2)CC1 (stereo not drawn),9.03%
3,COc1ccc(N(CC(=O)Nc2c(C)cccc2C)S(=O)(=O)c2ccccc2[N+](=O)[O-])c(OC)c1,18%
4,Cc1cccc(NS(=O)(=O)c2ccc(C)c(C(=O)N(C)C)c2)c1,9.25%
5,O=C(Nc1cc(Cl)ccc1-n1cncn1)c1cc(F)cc(F)c1,6.11%
6,CCOc1ccc(NC2=NCC(=O)N2Cc2cccs2)cc1.Cl,2.41%
7,O=C(N/N=C/c1cc(Cl)ccc1O)C(=O)Nc1ccccc1OC(F)(F)C(F)F,2.44%
8,Cc1ccccc1-n1nnnc1SCC(=O)N(C)C1CCS(=O)(=O)C1 (stereo not drawn),14.5%
9,FC(F)(F)c1ccccc1-n1c(CN2CCCCC2)n[nH]c1=S,-9.23%
10,Cc1ccc(NC2=C/C(=N/S(=O)(=O)c3cccs3)c3ccccc3C2=O)cc1,8.88%
11,Cc1cc(C)nc(N(C#N)C(C)C(=O)N(C)C)n1 (stereo not drawn),13.4%
12,Cn1cccc1-c1cc(C(=O)N/N=C/c2cccc(O)c2)[nH]n1,12.1%
13,O=C(CSCc1ccc(Cl)cc1)N1CCN(Cc2ccc3c(c2)OCO3)CC1,-0.732%
14,Cc1c(CCOC(=O)C2C3CC4CC(C3)CC2C4)sc[n+]1CC(=O)c1ccc(Br)cc1.[Br-] (stereo not drawn),2.4%
15,COCCCNC(=S)N/N=C/c1ccc2c(c1)OCO2,8.44%
16,Cc1cc(C)n2nc(/C(C#N)=C/c3ccccn3)c(C#N)c2n1,18%
17,O=C(Cc1ccc(F)cc1)N1CCN(c2ccc([N+](=O)[O-])cc2)CC1,-45.8%
18,COc1ccc(C(CNC(=O)c2ccc(C)o2)N2CCOCC2)cc1 (stereo not drawn),-1.5%
19,COc1cccc(CNC(=O)COC(=O)c2cc([N+](=O)[O-])ccc2N2CCCC2)c1,-16.4%
20,COCCCNC(=S)N1CCN(C)CC1,-6.76%
21,COc1ccc(C2C3=C(CCCC3=O)Nc3nc(SCc4ccc(C(=O)O)cc4)nn32)cc1OC (stereo not drawn),3.59%
22,Cc1cc(NC(=O)c2cc(-c3ccccn3)nc3ccc(Br)cc23)no1,14.1%
23,Cc1c(OCC(=O)C(C)(C)C)ccc2c3c(c(=O)oc12)CCCC3,15.3%
24,COc1cc2c(cc1OC)-c1nnnn1C(C)(C)C2,7.62%
